From the supplement of paper PMC4604168 (melanoma cell lines)
The other results are listed elsewhere or left out. Many values rest on one well or one pass, so single values are uncertain.

How the values were obtained:
Test in all cases: cell count relative to DMSO control; melanoma cells; higher = more viable cells
Conditions in all cases: library dose: standard library concentration; 72 h
[1] = test system: G361
[2] = test system: IPC-298
[3] = test system: IST-MEL1
[4] = test system: LB2518-MEL
[5] = test system: LOXIMVI
[6] = test system: MEL-HO
[7] = test system: MZ2-MEL
[8] = test system: MeWo
[9] = test system: RPMI7951
[10] = test system: RVH-421
[11] = test system: SkMel28
[12] = test system: SkMel2
[13] = test system: SkMel30
[14] = test system: SkMel5
[15] = test system: UACC257
[16] = test system: UACC62
[17] = test system: WM115
[18] = test system: WM1716
[19] = test system: WM3526
[20] = test system: WM1745
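Also: cells treated in 1,536-well plates, then fixed and DAPI-stained, with nuclei counted from automated high-throughput microscope images.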

| Structure (SMILES) | cell count [1] [%] | cell count [2] [%] | cell count [3] [%] | cell count [4] [%] | cell count [5] [%] | cell count [6] [%] | cell count [7] [%] | cell count [8] [%] | cell count [9] [%] | cell count [10] [%] | cell count [11] [%] | cell count [12] [%] | cell count [13] [%] | cell count [14] [%] | cell count [15] [%] | cell count [16] [%] | cell count [17] [%] | cell count [18] [%] | cell count [19] [%] | cell count [20] [%] |
| --- | --- | --- | --- | --- | --- | --- | --- | --- | --- | --- | --- | --- | --- | --- | --- | --- | --- | --- | --- | --- |
| O=C(O)[C@@H]1[O][Sb](=[O])([O][Sb]2(=[O])[O][C@H]([C@H](O)CO)[C@H](O)[C@H](C(=O)O)[O]2)[O][C@H]([C@H](O)CO)[C@@H]1O (some centres undefined) [stibogluconate] + CCN(CC)CCCCNc1ncc2cc(-c3cc(OC)cc(OC)c3)c(NC(=O)NC(C)(C)C)nc2n1 [PD173074] (first compound 10 µM, partner dose 0.5 µM) | 98.4 | 99.2 | 102 | 109 | 90.2 | 88.7 | 103 | 77.3 | 85.2 | 112 | 117 | 96.5 | 91.5 | 84.7 | 118 | 97.4 | 100 | 100 | 94.9 |  |
| O=C(O)[C@@H]1[O][Sb](=[O])([O][Sb]2(=[O])[O][C@H]([C@H](O)CO)[C@H](O)[C@H](C(=O)O)[O]2)[O][C@H]([C@H](O)CO)[C@@H]1O (some centres undefined) [stibogluconate] + COc1ccc2c(c1)CCC1C2CCC2(C)C(NCCCCCCN3C(=O)C=CC3=O)CCC12 [U73122] (first compound 10 µM, partner dose 2 µM) | 120 | 109 | 98.3 | 103 | 78.3 | 102 | 118 | 70.6 | 71.3 | 118 | 113 | 92.8 | 127 | 114 | 114 | 102 | 87.2 | 97.8 | 95.1 |  |
| Cn1nnc2c(C(N)=O)ncn2c1=O [temozolomide] + O=S(=O)(c1ccccc1)N(CC(F)(F)F)c1ccc(C(O)(C(F)(F)F)C(F)(F)F)cc1 [T0901317] (first compound 10 µM, partner dose 7 µM) | 81.7 | 59.6 | 83.9 | 91.4 | 118 | 97.5 | 67 | 86.3 | 89.7 | 99.8 | 36.3 | 101 | 63.1 | 64 | 90.9 | 62.3 | 98.8 | 61.5 | 85.5 | 81 |
| O=C(Nc1cc(C(F)(F)F)cc(C(F)(F)F)c1)c1cc(Cl)ccc1O + O=c1cc(-c2cccc3c2Sc2ccccc2S3)oc(N2CCOCC2)c1 [KU55933] (first compound 0.08 µM, partner dose 5 µM) | 83.4 | 88.1 | 87.4 | 118 | 108 | 77.8 | 96.5 | 82.9 | 76.9 | 76.8 | 106 | 81.6 | 113 | 71.9 | 97.1 | 112 | 96.2 | 118 | 84.9 |  |
| O=C(Nc1cc(C(F)(F)F)cc(C(F)(F)F)c1)c1cc(Cl)ccc1O + C=CCNC1=C2C[C@@H](C)C[C@H](OC)[C@H](O)[C@@H](C)/C=C(\C)[C@H](OC(N)=O)[C@@H](OC)/C=C\C=C(/C)C(=O)NC(=CC1=O)C2=O [Tanespimycin] (first compound 0.08 µM, partner dose 0.01 µM) | 70.7 | 94.4 | 54.7 | 93.2 | 74.1 | 72 | 83.8 | 73.9 | 32.7 | 67.2 | 77.1 | 95.8 | 113 | 86.5 | 93.7 | 56.6 | 34.4 | 76.5 | 86.4 | 56.7 |
| O=C(O)[C@@H]1[O][Sb](=[O])([O][Sb]2(=[O])[O][C@H]([C@H](O)CO)[C@H](O)[C@H](C(=O)O)[O]2)[O][C@H]([C@H](O)CO)[C@@H]1O (some centres undefined) [stibogluconate] + O=C(Nc1cccc(Cl)c1)Nc1ncc(CCNc2ncnc3ccsc23)s1 [SNS314] (first compound 10 µM, partner dose 0.004 µM) | 73.7 | 99.8 | 51.8 | 91.2 | 86.6 | 64.9 | 96.1 | 56.8 | 55.8 | 83.9 | 44.3 | 82.1 | 81.1 | 88.5 | 66.1 | 82.3 | 39.1 | 40.1 | 64 | 73.1 |
| O=C(Nc1cc(C(F)(F)F)cc(C(F)(F)F)c1)c1cc(Cl)ccc1O + CCCCCCCCCCCCCCCCCCOP(=O)([O-])OC1CC[N+](C)(C)CC1 [Perifosine] (first compound 0.08 µM, partner dose 2 µM) | 97.2 | 88.1 | 84.8 | 90 | 84.8 | 85.8 | 82.2 | 83.7 | 30 | 199 | 66.4 | 97.6 | 67.5 | 91 | 108 | 109 | 67.1 | 84.6 | 83.7 | 95.5 |
| Cn1nnc2c(C(N)=O)ncn2c1=O [temozolomide] + CCc1ccc(CCOc2ccc(CC3SC(=O)NC3=O)cc2)nc1 [pioglitazone] (first compound 10 µM, partner dose 10 µM) | 76.4 | 63.2 | 81.7 | 96.8 | 80.2 | 91.8 | 79.3 | 98.2 | 90.4 | 81.3 | 33.4 | 99.9 | 65.4 | 65.8 | 92.5 | 77.1 | 79.8 | 76.8 | 98.3 | 79 |
| O=C(O)[C@@H]1[O][Sb](=[O])([O][Sb]2(=[O])[O][C@H]([C@H](O)CO)[C@H](O)[C@H](C(=O)O)[O]2)[O][C@H]([C@H](O)CO)[C@@H]1O (some centres undefined) [stibogluconate] + C[C@@H]1CCN(C(=O)CC#N)C[C@@H]1N(C)c1ncnc2[nH]ccc12 [CP690550] (first compound 10 µM, partner dose 5 µM) | 121 | 132 | 109 | 80.8 | 114 | 116 | 127 | 111 | 162 | 125 | 155 | 96.8 | 101 | 111 | 105 | 89.3 | 99.5 | 104 | 99.4 | 110 |
| O=C(O)c1ccc2c(c1)nc(Nc1cccc(Cl)c1)c1ccncc12 + NCC(=O)Nc1ccc(-n2nc(C(F)(F)F)cc2-c2ccc3c(ccc4ccccc43)c2)cc1 [OSU03012] (first compound 2 µM, partner dose 5 µM) | 55.3 | 64.1 | 93.7 | 103 | 74.2 | 64.5 | 69.1 | 82.5 | 53.1 | 89.3 | 15.3 | 19.9 | 29.4 | 48.6 | 61.8 | 57.4 | 79.6 | 53.9 | 45.8 | 78.3 |
| Cn1nnc2c(C(N)=O)ncn2c1=O [temozolomide] + CCCCCCCCCCCC1=C(O)C(=O)C=C(O)C1=O [Embelin] (first compound 10 µM, partner dose 6 µM) | 68.9 | 49.4 | 68.2 | 87.3 | 89 | 76.8 | 72.8 | 117 | 89.9 | 79.3 | 37.4 | 91.8 | 73.9 | 74.7 | 102 | 69.1 | 85.1 | 56 | 82.5 | 71.2 |
| O=C(Nc1cc(C(F)(F)F)cc(C(F)(F)F)c1)c1cc(Cl)ccc1O + Oc1nc(-c2ccc(C(F)(F)F)cc2)nc2c1CSCC2 [XAV939] (first compound 0.08 µM, partner dose 10 µM) | 81.4 | 74.9 | 91.4 | 93 | 129 | 78.3 | 97.2 | 85.3 | 87.9 | 83.8 | 67.3 | 89.4 | 117 | 63.6 | 85.6 | 73.2 | 90.3 | 61.2 | 94.4 |  |
| O=C(O)[C@@H]1[O][Sb](=[O])([O][Sb]2(=[O])[O][C@H]([C@H](O)CO)[C@H](O)[C@H](C(=O)O)[O]2)[O][C@H]([C@H](O)CO)[C@@H]1O (some centres undefined) [stibogluconate] + O=c1cc(-c2cccc3c2Sc2ccccc2S3)oc(N2CCOCC2)c1 [KU55933] (first compound 10 µM, partner dose 5 µM) | 69.1 | 95.3 | 93.1 | 92.3 | 86.8 | 76.6 | 90.8 | 91.2 | 75.2 | 93.8 | 61.3 | 69.8 | 104 | 95.4 | 93.9 | 63.5 | 76.3 | 84.3 | 72 |  |
| O=C(Nc1cc(C(F)(F)F)cc(C(F)(F)F)c1)c1cc(Cl)ccc1O + C[C@]1(O)C[C@@H](c2nc(-c3ccc4ccc(-c5ccccc5)nc4c3)c3c(N)nccn32)C1 [OSI906] (first compound 0.08 µM, partner dose 2 µM) | 92.8 | 81.3 | 83.7 | 81.1 | 71.8 | 96 | 116 | 94 | 89.7 | 116 | 88.6 | 73.6 | 93.5 | 81.6 | 93.6 | 68.4 | 98.2 | 80.7 | 81 | 92.3 |
| O=C(O)c1ccc2c(c1)nc(Nc1cccc(Cl)c1)c1ccncc12 + CCCCCCCCCCCC1=C(O)C(=O)C=C(O)C1=O [Embelin] (first compound 2 µM, partner dose 6 µM) | 76.4 | 74.8 | 61.6 | 102 | 70.7 | 59.3 | 83.9 | 95.3 | 64.9 | 69.8 | 70.1 | 75.1 | 81.7 | 83.1 | 84.5 | 71.8 | 108 | 75.4 | 74.7 |  |
